Test results reported in PubChem BioAssay (NCATS).
Inconclusive results, whose numbers are uncertain, are shown with a selection of clear calls. Potencies of inconclusive entries are left out as doubtful fits. Active and inactive are the calls of the source. Calls follow the shape of the dose curve; as a rule, active = well fitted curve in the direction sought with a large enough effect; inconclusive = small, poorly fitted or top-dose-only effect, or another doubt; inactive = no such curve, though single readings can be large; an effect the other way counts as inactive or inconclusive.

How the values were obtained:
[1] = qHTS of pediatric cancer cell lines to identify multiple opportunities for drug repurposing: Primary screen for SK-N-SH cells (AID 1347098); settings: SK-N-SH viability, CellTiter-Glo luminescence, 48 h; activity change, negative = cytotoxic: at 57 µM (top of the series); also: nearly all actives have a fitted effect of over 65% in size;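 as to activity change, negative = cytotoxic: DMSO served as neutral control and bortezomib at 2.3 µM as positive control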
In short: (§1)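 Cells (500-1,000/well) rested 5 h, then received compounds for 48 h; metabolically active cells were measured by CellTiter-Glo luminescence. Final concentrations spanned up to 46 µM (MIPE, 11-point) or 0.59 nM-46 µM (NPC, 8-point) in primary screens, 11-point in follow-ups.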

[2] = qHTS of pediatric cancer cell lines to identify multiple opportunities for drug repurposing: Primary screen for LAN-5 cells (AID 1347100); settings: LAN-5 neuroblastoma viability, CellTiter-Glo luminescence, 48 h; activity change, negative = cytotoxic: at 46 µM (top of the series)
In short: (§2)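 Cells (500-1,000/well) in growth media were settled 5 h at 37 degrees C, then given compounds for 48 h. Viability was read as CellTiter-Glo luminescence. Primary runs used MIPE at 11 points (0.78 nM-46 µM) and NPC at 8 points (0.59 nM-46 µM); follow-ups used 11 points.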

[3] = qHTS of pediatric cancer cell lines to identify multiple opportunities for drug repurposing: Primary screen for BT-12 cells (AID 1347101); settings: BT-12 viability, CellTiter-Glo luminescence, 48 h; series mostly up to 57.3 µM; also: nearly all actives have a fitted effect of over 25% in size
In short: as §1

[4] = qHTS of pediatric cancer cell lines to identify multiple opportunities for drug repurposing: Primary screen for OHS-50 cells (AID 1347103); settings: OHS-50 osteosarcoma viability, CellTiter-Glo luminescence, 48 h; series mostly up to 57.3 µM; also: nearly all actives have a fitted effect of over 40% in size
In short: as §1

[5] = qHTS of pediatric cancer cell lines to identify multiple opportunities for drug repurposing: Primary screen for RD cells (AID 1347104); settings: RD rhabdomyosarcoma viability, CellTiter-Glo luminescence, 48 h; series mostly up to 46 µM; also: nearly all actives have a fitted effect of over 55% in size
In short: (§3)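 Quantitative HTS format: each compound titrated (MIPE 11 points from 0.78 nM, NPC 8 points from 0.59 nM) onto cells plated 5 hours earlier. After 48 h at 37 degrees C, CellTiter-Glo luminescence was recorded.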

[6] = qHTS of pediatric cancer cell lines to identify multiple opportunities for drug repurposing: Primary screen for Rh18 cells (AID 1347102); settings: Rh18 rhabdomyosarcoma viability, CellTiter-Glo luminescence, 48 h; activity change, negative = cytotoxic: at 46 µM (top of the series); also: nearly all actives have a fitted effect of over 65% in size
In short: as §2

[7] = qHTS of pediatric cancer cell lines to identify multiple opportunities for drug repurposing: Primary screen for MG 63 (6-TG R) cells (AID 1347105); settings: MG 63 (6-TG R) viability, CellTiter-Glo, 48 h; activity change, negative = cytotoxic: at 46 µM (top of the series); also: nearly all actives have a fitted effect of over 50% in size
In short: as §3

[8] = qHTS of pediatric cancer cell lines to identify multiple opportunities for drug repurposing: Primary screen for control Hh wild type fibroblast cells (AID 1347106); settings: Hh wild-type fibroblast viability, CellTiter-Glo luminescence, 48 h; series mostly up to 46 µM; also: nearly all actives have a fitted effect of over 55% in size
In short: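 Viability after 48 h compound treatment at 37C, 500-1,000 cells/well, read as ATP luminescence with CellTiter-Glo. Primary screens used 11-point (MIPE, 0.78 nM-46 µM) or 8-point (NPC, 0.59 nM-46 µM) final concentrations; follow-up screens used 11-point dilutions.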

[9] = qHTS of pediatric cancer cell lines to identify multiple opportunities for drug repurposing: Primary screen for NB1643 cells (AID 1347099); settings: NB1643 neuroblastoma viability, CellTiter-Glo luminescence, 48 h; series mostly up to 46 µM; also: nearly all actives have a fitted effect of over 50% in size
In short: as §3
Potency is read from the fitted curve at half-maximal effect; tags tell the direction and shape of the fitted curve.

CN(C)CCCOc1nn(Cc2ccccc2)c2ccccc12
Potency [1]: active: 15.4 µM
Potency [2]: inconclusive [cytotoxic, single point]
Potency [3]: inconclusive [cytotoxic, single point]
Potency [4]: inconclusive [cytotoxic, partial curve]
Potency [5]: inconclusive [cytotoxic, partial curve]

C=C1C[C@@]2(O)O[C@@]3(C[C@H]2C(C)C)[C@H](C)CC[C@H]13
Potency [1]: inactive
Potency [6]: inactive
Potency [4]: inactive

Nc1ccn([C@@H]2O[C@H](CO)[C@H](O)C2(F)F)c(=O)n1
Potency [1]: inconclusive [cytotoxic, full curve]
Potency [2]: active: 0.0935 µM
Potency [3]: inconclusive [cytotoxic, full curve]
Potency [4]: inconclusive [cytotoxic, full curve]
Potency [5]: inconclusive [cytotoxic, full curve]
Potency [7]: inconclusive [cytotoxic, full curve]

O=C(O)CCC=CCC[C@@H]1[C@H](N2CCCCC2)[C@@H](O)C[C@@H]1OCc1ccc(-c2ccccc2)cc1
Potency [1]: inconclusive [cytotoxic, partial curve]
Potency [4]: inconclusive [cytotoxic, partial curve]
Potency [5]: inconclusive [cytotoxic, partial curve, poor fit]
Potency [7]: inactive

CS[C@H]1SC[C@@H]2C(=O)N(C)[C@H](C(C)C)C(=O)OC[C@H](NC(=O)c3cnc4ccccc4n3)C(=O)N[C@H](C)C(=O)N(C)[C@@H]1C(=O)N(C)[C@H](C(C)C)C(=O)OC[C@H](NC(=O)c1cnc3ccccc3n1)C(=O)N[C@H](C)C(=O)N2C
Potency [1]: active: 0.0048 µM
Potency [6]: inconclusive [cytotoxic, full curve, poor fit]
Potency [7]: active: 0.0187 µM
Potency [8]: inconclusive [cytotoxic, full curve]

Cc1cc(N)c2cc(NC(=O)Nc3ccc4nc(C)cc(N)c4c3)ccc2n1
Potency [1]: inconclusive [cytotoxic, single point]
Potency [9]: inconclusive [cytotoxic, partial curve, poor fit]
Potency [5]: inconclusive [cytotoxic, single point]

OCC(O)C(O)C(O)CO (stereo unspecified)
Potency [1]: inconclusive [cytotoxic, single point]
Potency [2]: inactive

O=[N+]([O-])c1ccc(O)c2ncccc12
Potency [9]: active: 1.88 µM
Potency [3]: active: 5.5 µM
Potency [6]: inconclusive [cytotoxic, single point]
Potency [5]: active: 5.31 µM
